Some of the results follow.

Sequences and labels used below:
T1: UNK ZnF1-3 (human, UniProt Q9C0B0 31-174)
T1 sequence: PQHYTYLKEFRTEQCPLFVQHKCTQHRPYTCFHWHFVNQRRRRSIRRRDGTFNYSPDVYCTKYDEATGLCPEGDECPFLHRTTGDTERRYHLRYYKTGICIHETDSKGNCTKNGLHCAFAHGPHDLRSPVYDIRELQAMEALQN

B1: 140294198_140294318_5200_3pUTR_ENSMUSG00000031285_ENSMUST00000033642|mouse|control|control (ssRNA)
RNA: GGGAGUUCUACAGUCCGACGAUCGAGAGAGAGAGAAUAUAAUGUGUAAGGUCACUGUAUGCUAUUUUUGGUAUAGAUACAAAUAUUCAGUGUCAGCCAGGGCACAAUUUAGUGACAAAAGACACUUGUUUAUACCUGAAAAUUCAACAGAGGAUUGAGCAUCA
B2: chr8:17827181:17827182:+_ENSG00000078674_ENST00000519253|hu_hu|motif|central (ssRNA)
RNA: GGGAGUUCUACAGUCCGACGAUCGCUUUCAAAAGGUUUUGGAAAAGCCAUAUAUUCUGUUUUUCCUGAAGAAUUCUGGGCGGAGGGUUGCUGCUGUUCACUGGGUGUAGAGAUAUUCUGAGAAAAAUCUCCAAAAUUAGAAGGCAACAGAGGAUUGAGCAUCA
B3: chr8:95500983:95500984:-_ENSG00000164944_ENST00000437199|hu_hu|hu_hu_hu_mus_True|38_98 (ssRNA)
RNA: GGGAGUUCUACAGUCCGACGAUCAGAACACAUCUAUUCGUGUAAAGACCGUACAUGACGGCCUCUACCACUGCCUCCACUAACAAACUUUCCUCUCUGAGCCUCCAUGCCGCUAUUUGUACUAGCCCAGGACGGUCCCAGGCCCAACAGAGGAUUGAGCAUCA
B4: chr7:19737724:19737725:-_ENSG00000105849_ENST00000222567|hu_hu|FALSE|FALSE (ssRNA)
RNA: GGGAGUUCUACAGUCCGACGAUCGUAGAGUGCAAAACCUGGAAGAAUAUGAGAGCUGACAGUGAGAGCAGCUUUUUAUUUUGUAUAAAAUGGUAUUUUAACAAUACUGGCUUUCCCCAAAUUAAUUUACAGUCAGUUUUAUCACAACAGAGGAUUGAGCAUCA
B5: chr17:74699132:74699133:-_ENSMUSG00000024067_ENSMUST00000112571|perfect_dup|FALSE|FALSE (ssRNA)
RNA: GGGAGUUCUACAGUCCGACGAUCCCCAAGAAAUCAAUUUCGAUCUUCAAACUGCGCCUUGUUUUUUAAAAGAUAAGAUGCUAGGAACUCGAUGGGAUUUGGUGGUCUUUCCUUGGCAAGCACAGCAAGUCCCUGUAAUAAGAUCAACAGAGGAUUGAGCAUCA
B6: chr12:45383693:45383694:+_ENSMUSG00000036257_ENSMUST00000043082|mus_hu|FALSE|FALSE (ssRNA)
RNA: GGGAGUUCUACAGUCCGACGAUCACAAGAAAUACAGUUGCUUGCUUCUCUGCUUCCCACAAACACUUCUUGCAUUACUAAGGAGGUAAAUAUAUAUAUCUACAGUCAGAUUAAUAGACAUAACUUAAAAAUCAUUUAUUUUCUCAACAGAGGAUUGAGCAUCA
B7: chr20:33096620:33096621:+_ENSG00000078747_ENST00000374864|hu_hu|motif|central (ssRNA)
RNA: GGGAGUUCUACAGUCCGACGAUCGUCUUAAACUCCUUAACAAUAAUUAAAUAUAACUGAAGUUGUUGGAUUAUGAUAAAACGGUAAAGCAUCAAUUAUAUAGCGGAACAUAUAAAAAUCACCAGAGACAUCUUUAGAUGAAUUCAACAGAGGAUUGAGCAUCA
B8: 76006661_76006781_9599_CDS_ENSMUSG00000022565_ENSMUST00000071869|mouse|control|control (ssRNA)
RNA: GGGAGUUCUACAGUCCGACGAUCCUGGCUGUAGGUGACUGGCUCCUGGGUGCUGGGGUCAUGGUAGACUCUGGCAUCAUCUCUGGGUGACGUCAGGGCCCUGUUAGUCUCUUUGUCCAGGUAGCCCCGGGCAUAGGCAACAUCCAACAGAGGAUUGAGCAUCA
B9: chr17:26961916:26961917:-_ENSG00000007202_ENST00000528896|hu_mus|FALSE|FALSE (ssRNA)
RNA: GGGAGUUCUACAGUCCGACGAUCCACUUUGGCAUCUAGCAACUGCAGCCUUUUGGCACUCUCCUUACUUUCAUCCUUCAUCAGUUCGUAGUUAUCAUGAAGUUUCACCUCAAAGAUGUCAUCCAGGAAAACCCAAGAAAAGUGCAACAGAGGAUUGAGCAUCA
B10: chr3:19992450:19992451:+_ENSG00000144566_ENST00000273047|hu_mus|FALSE|FALSE (ssRNA)
RNA: GGGAGUUCUACAGUCCGACGAUCUUUCACAAAGCGAAGAACCAGGCUUGAUUUGCCAACAGCAGACUCUCCUAGAAGGACCAGUUUGAACUGGCAUAUUUUAUUUCCAGUAUUUGGCCCGUUGGGUCUUGUUGCUCCUCGAUUCAACAGAGGAUUGAGCAUCA
B11: chr9:14812383:14812384:-_ENSMUSG00000031934_ENSMUST00000164273|mus_hu|motif|central (ssRNA)
RNA: GGGAGUUCUACAGUCCGACGAUCAUAGCCCAGGUAGAUACACGCUAACAGUAUAAUGAUGAGUGUCAGCAGGCGGCAGCGGAUGUACUUGAUGAUUAAAUUAUUAGAAUUUUUCUUUGUCUUCAAGUACUGCUCCACAAUUGGCAACAGAGGAUUGAGCAUCA
B12: chr5:128448638:128448639:+_ENSG00000066583_ENST00000173527|hu_mus|hu_hu_hu_mus_False|68_78 (ssRNA)
RNA: GGGAGUUCUACAGUCCGACGAUCGGCACUCGCCUUAAUUAGGUUCUGAAUUUCCUUGAAUUUUGGAUGGUCCUUAUCAGCCACCAGCUGUAGGAGGACAGCCUCACUAGUGGUCACGAUGAUCCCAGUGCGGGCAAGACGCUCCAACAGAGGAUUGAGCAUCA
B13: chr8:17827181:17827182:+_ENSG00000078674_ENST00000519253|hu_mus|motif|central (ssRNA)
RNA: GGGAGUUCUACAGUCCGACGAUCGCUUUCAAAGGGUUUUGGAAAAGCCAUAUACUCUGUUUUCCCUGAAGGAUUUUGAGCGGAUGGCUGCUGCUGUUCAGUAGGUGUAGAAACAUUCUGAGAAAAAUCUCCAAAAUUAGAAGGCAACAGAGGAUUGAGCAUCA
B14: chr1:63113421:63113422:-_ENSG00000116641_ENST00000251157|hu_hu|FALSE|FALSE (ssRNA)
RNA: GGGAGUUCUACAGUCCGACGAUCUAAGCAUUUUACAAGAAGUCUUUGACCAAAAUGUUCUUUGGGUAUAUCAGGAACACUAAGCCGUUCUAUUGGUUCUUCCUCAUCUGGUGAUGGAUGCAAAGCAAAAAGUUCUUUGUGACGCAACAGAGGAUUGAGCAUCA
B15: 73686211_73694862_353_CDS_ENSMUSG00000029152_ENSMUST00000031038|mouse|control|control (ssRNA)
RNA: GGGAGUUCUACAGUCCGACGAUCUGAACCAUAUUUUGGAUGACUUGACAGGAUUCCUUUACUAAUUAAUCCUUGAGUAAUCAGCAUACUUGUGGCAGCCAACGGCACAGAUCUGAACCAGAAGCACUCUUCAUGGCACUCUGCCAACAGAGGAUUGAGCAUCA
B16: 32187752_32189466_2706_3pUTR_ENSMUSG00000029765_ENSMUST00000115096|mouse|control|control (ssRNA)
RNA: GGGAGUUCUACAGUCCGACGAUCACAGAUCUUCAAAGGUACAGUUGACACCUGCUGACAGCUCCGGGACAUUGUAUGUCUCUAGGACCAGCAGCACGUUGUACUGAGAGACAGAGAUGUUGUUGGGAUGGACCGUCAGCCGGACAACAGAGGAUUGAGCAUCA
B17: chr1:29069439:29069440:+_ENSG00000198492_ENST00000541996|hu_hu|motif|central (ssRNA)
RNA: GGGAGUUCUACAGUCCGACGAUCUGCUGGUUUUGGAGGAGCAAUGGUGGCUGGAGGCAAACUAUUGGAAGCCACGAUGUUACGGGUAAUGGACCCGCUACCAACAGCAGAACCUACAACUUUUGGAACAUUGCUUGCAACUUCCAACAGAGGAUUGAGCAUCA
B18: chr2:114691908:114691909:+_ENSG00000115091_ENST00000536059|hu_hu|motif|central (ssRNA)
RNA: GGGAGUUCUACAGUCCGACGAUCGCCAAUCACAUACCCUUCAGCCACAGGAAUGACAUGAGUGACACCAUCUCCACUGUCGGUUACCGUACCGGUCAACGUCCGUUCUCCUACUUGUCUUGAGGUCCAAGAUGCAGCUAAGGCCAACAGAGGAUUGAGCAUCA
B19: chr12:111957846:111957847:-_ENSG00000204842_ENST00000535949|hu_mus|motif|central (ssRNA)
RNA: GGGAGUUCUACAGUCCGACGAUCUGCUAACUGGUUUGCCCUUGCCUCCCGUUUAAGAAAUUCUUCUGAGUUGUCCCUUUCGGAAGGAACCGUAUAUGAAGAUAAACUGCUAUCAUAUGUGGACACCACACCAUAAUUCUCUUCCAACAGAGGAUUGAGCAUCA
B20: chr2:160855017:160855018:-_ENSMUSG00000057133_ENSMUST00000039782|mus_hu|FALSE|FALSE (ssRNA)
RNA: GGGAGUUCUACAGUCCGACGAUCAUCCUUUUCGAGCUCUUCCAUUGUGGCCCAUUUACAAUGUAAGUAGGAAAAAUUUCUAUACUUAACGUAGAACAGCUCCAAGUCGAACGGAGGUUCUCCUGGGUGAACCUCCUGGACAGUCAACAGAGGAUUGAGCAUCA
B21: chr5:124911765:124911766:+_ENSMUSG00000049327_ENSMUST00000059580|mus_mus|FALSE|FALSE (ssRNA)
RNA: GGGAGUUCUACAGUCCGACGAUCAUGGGAGACCAGGAGCUCUGCCUUGGCAGCAGGUGGAGAACUUCCCAUGCAGCAGAAUUGGGGUUAGGGAGGGGGUGUGGGCUUAGUAAUUUCUGGUCCCACUACAAAACCUCACUUUUGCAACAGAGGAUUGAGCAUCA
B22: 12687287_12688270_1685_3pUTR_ENSMUSG00000031010_ENSMUST00000089302|mouse|control|control (ssRNA)
RNA: GGGAGUUCUACAGUCCGACGAUCAAUUUGGCCAGUAGAUCAUGUACAUUCUUUACAAUGGCUUCAUGUUUCCCUGCCUGUGCUGCCCAGAUAUUAUCAAGAUCUUGCAAGGUCAGAGCUUUUUCUUUUAUGACAAAGCGAAGACAACAGAGGAUUGAGCAUCA

The test has as its target T1, UNK ZnF1-3. Briefly: nsRBNS (natural sequence RNA bind-n-seq); RBNS binding buffer (assumed for nsRBNS): 25 mM Tris pH 7.5, 150 mM KCl, 3 mM MgCl2, 0.01% Triton X-100, 500 ug/ml BSA, 20 U/ml SUPERase-In, 4 C; UNK is unkempt and MSI1 is Musashi-1; names of the RNAs are library labels; protein concentration not given here; high values mean tight binding.
Molecule B1 returned a binding signal of 1.24 enrichment R. Then B2, with 1.58 enrichment R. Then B3, with 0.982 enrichment R; and B4, with 1.29 enrichment R. Then B5, with 0.99 enrichment R; and B6, with 1.08 enrichment R; and B7, with 1.68 enrichment R.

As to B8, the binding signal stood at 0.672 enrichment R. Then B9, with 1.09 enrichment R; and B10, with 0.704 enrichment R; and B11, with 1.42 enrichment R. With B12, the binding signal worked out at 0.885 enrichment R. B13 showed a binding signal of 1.27 enrichment R.

For B14, the binding signal was found to be 0.839 enrichment R. Then B15, with 0.739 enrichment R; and B16, with 0.471 enrichment R; and B17, with 1.04 enrichment R. Then B18, with 1.19 enrichment R. B19 had a binding signal of 0.976 enrichment R.

On to B20, for which the binding signal is 0.672 enrichment R. The molecule B21 showed a binding signal of 1.16 enrichment R. Then B22, with 0.836 enrichment R.

The record behind these values is article PMC12136788.
